± gives the standard deviation of the averaged measurements. Restriction of a single-cycle SIVsab GFP reporter by TRIM5α v1-loop variants in CRFK cells. Human variants: read share among cells still uninfected after two challenges over input, higher = gained restriction. Rhesus variants: share among infected cells over input, higher = lost restriction. Reporter dose not given per row. No active / inactive call per row; the paper calls a change when both replicates lie above its controls (mean + 2 SD of stop or wild-type variants, or the top frameshift score). Residues outside the varied loop are taken from Swiss-Prot. The paper reads the human single-substitution scores as noise; they and the rhesus combinations repeat poorly (rank correlation 0.3 to 0.4), indel scores repeat only for the top variants, rhesus substitutions well (0.9).
Each sequence was assayed on SIVsab (simian immunodeficiency virus of sabaeus monkeys), single-cycle GFP reporter, in CRFK cells (assay: enrichment among uninfected cells over input (fold); higher = stronger restriction). Conditions: library: human / rhesus combinations.
Experimental: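 Pools of CRFK cells expressing variants of the TRIM5α v1 loop were challenged with the single-cycle reporter, sorted by GFP and sequenced; mean of two replicates.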
“MASGILVNVKEEVTCPICLELLTQPLSLDCGHSFCQACLTANHKKSMLDKGESSCPVCRISYQPENIRPNRHVANIVEKLREVKLSPEGQKVDHCARHGEKLLLFCQEDGKVICWLCERSQEHRGHHTFLTEEVAREYQVKLQAALEMLRQKQQEAEELEADIREEKASWKTQIQYDKTNVLADFEQLRDILDWEESNELQNLEKEEEDILKSLTNSETEMVQQTQSLRELISDLEHRLQGSVMELLQGVDGVIKRTENVTLKKPETFPKNQRRVFRAPDLKGMLEVFRELTDVRRYWVDVTVAPNNISCAVISEDKRQVSSPKPQIIYQARGTRFTFQSLVNFNYCTGILGSQSITSGKHYWEVDVSKKTAWILGVCAGFQPDAMCNIEKNENYQPKYGYWVIGLEEGVKCSAFQDSSFHTPSVPFIVPLSVIICPDRVGVFLDYEACTVSFFNITNHGFLIYKFSHCSFSQPVFPYLNPRKCGVPMTLCSPSS [human TRIM5α, 330-340 = QARGTRFTFQSLV]” showed an enrichment of 0.11 ± 0.043.
“MASGILVNVKEEVTCPICLELLTQPLSLDCGHSFCQACLTANHKKSMLDKGESSCPVCRISYQPENIRPNRHVANIVEKLREVKLSPEGQKVDHCARHGEKLLLFCQEDGKVICWLCERSQEHRGHHTFLTEEVAREYQVKLQAALEMLRQKQQEAEELEADIREEKASWKTQIQYDKTNVLADFEQLRDILDWEESNELQNLEKEEEDILKSLTNSETEMVQQTQSLRELISDLEHRLQGSVMELLQGVDGVIKRTENVTLKKPETFPKNQRRVFRAPDLKGMLEVFRELTDVRRYWVDVTVAPNNISCAVISEDKRQVSSPKPQIIYQAPGTLFTFPSFVNFNYCTGILGSQSITSGKHYWEVDVSKKTAWILGVCAGFQPDAMCNIEKNENYQPKYGYWVIGLEEGVKCSAFQDSSFHTPSVPFIVPLSVIICPDRVGVFLDYEACTVSFFNITNHGFLIYKFSHCSFSQPVFPYLNPRKCGVPMTLCSPSS [human TRIM5α, 330-340 = QAPGTLFTFPSFV]” showed an enrichment of 37.7 ± 15.
In the case of “MASGILVNVKEEVTCPICLELLTQPLSLDCGHSFCQACLTANHKKSMLDKGESSCPVCRISYQPENIRPNRHVANIVEKLREVKLSPEGQKVDHCARHGEKLLLFCQEDGKVICWLCERSQEHRGHHTFLTEEVAREYQVKLQAALEMLRQKQQEAEELEADIREEKASWKTQIQYDKTNVLADFEQLRDILDWEESNELQNLEKEEEDILKSLTNSETEMVQQTQSLRELISDLEHRLQGSVMELLQGVDGVIKRTENVTLKKPETFPKNQRRVFRAPDLKGMLEVFRELTDVRRYWVDVTVAPNNISCAVISEDKRQVSSPKPQIIYQAPGTRYTFQTLTNFNYCTGILGSQSITSGKHYWEVDVSKKTAWILGVCAGFQPDAMCNIEKNENYQPKYGYWVIGLEEGVKCSAFQDSSFHTPSVPFIVPLSVIICPDRVGVFLDYEACTVSFFNITNHGFLIYKFSHCSFSQPVFPYLNPRKCGVPMTLCSPSS [human TRIM5α, 330-340 = QAPGTRYTFQTLT]”, the enrichment is reported as 0.0653 ± 0.049.
Work on “MASGILVNVKEEVTCPICLELLTQPLSLDCGHSFCQACLTANHKKSMLDKGESSCPVCRISYQPENIRPNRHVANIVEKLREVKLSPEGQKVDHCARHGEKLLLFCQEDGKVICWLCERSQEHRGHHTFLTEEVAREYQVKLQAALEMLRQKQQEAEELEADIREEKASWKTQIQYDKTNVLADFEQLRDILDWEESNELQNLEKEEEDILKSLTNSETEMVQQTQSLRELISDLEHRLQGSVMELLQGVDGVIKRTENVTLKKPETFPKNQRRVFRAPDLKGMLEVFRELTDVRRYWVDVTVAPNNISCAVISEDKRQVSSPKPQIIYGAPGTRFTFQTLTNFNYCTGILGSQSITSGKHYWEVDVSKKTAWILGVCAGFQPDAMCNIEKNENYQPKYGYWVIGLEEGVKCSAFQDSSFHTPSVPFIVPLSVIICPDRVGVFLDYEACTVSFFNITNHGFLIYKFSHCSFSQPVFPYLNPRKCGVPMTLCSPSS [human TRIM5α, 330-340 = GAPGTRFTFQTLT]” yielded an enrichment of 0.268 ± 0.15.
For “MASGILVNVKEEVTCPICLELLTQPLSLDCGHSFCQACLTANHKKSMLDKGESSCPVCRISYQPENIRPNRHVANIVEKLREVKLSPEGQKVDHCARHGEKLLLFCQEDGKVICWLCERSQEHRGHHTFLTEEVAREYQVKLQAALEMLRQKQQEAEELEADIREEKASWKTQIQYDKTNVLADFEQLRDILDWEESNELQNLEKEEEDILKSLTNSETEMVQQTQSLRELISDLEHRLQGSVMELLQGVDGVIKRTENVTLKKPETFPKNQRRVFRAPDLKGMLEVFRELTDVRRYWVDVTVAPNNISCAVISEDKRQVSSPKPQIIYQAPGTLFPTLVNFNYCTGILGSQSITSGKHYWEVDVSKKTAWILGVCAGFQPDAMCNIEKNENYQPKYGYWVIGLEEGVKCSAFQDSSFHTPSVPFIVPLSVIICPDRVGVFLDYEACTVSFFNITNHGFLIYKFSHCSFSQPVFPYLNPRKCGVPMTLCSPSS [human TRIM5α, 330-340 = QAPGTLFPTLV]”, the enrichment was 0.00877 ± 0.0069.
For “MASGILVNVKEEVTCPICLELLTQPLSLDCGHSFCQACLTANHKKSMLDKGESSCPVCRISYQPENIRPNRHVANIVEKLREVKLSPEGQKVDHCARHGEKLLLFCQEDGKVICWLCERSQEHRGHHTFLTEEVAREYQVKLQAALEMLRQKQQEAEELEADIREEKASWKTQIQYDKTNVLADFEQLRDILDWEESNELQNLEKEEEDILKSLTNSETEMVQQTQSLRELISDLEHRLQGSVMELLQGVDGVIKRTENVTLKKPETFPKNQRRVFRAPDLKGMLEVFRELTDVRRYWVDVTVAPNNISCAVISEDKRQVSSPKPQIIYGAPGTLYTFPSLTNFNYCTGILGSQSITSGKHYWEVDVSKKTAWILGVCAGFQPDAMCNIEKNENYQPKYGYWVIGLEEGVKCSAFQDSSFHTPSVPFIVPLSVIICPDRVGVFLDYEACTVSFFNITNHGFLIYKFSHCSFSQPVFPYLNPRKCGVPMTLCSPSS [human TRIM5α, 330-340 = GAPGTLYTFPSLT]”, the enrichment was 0.121 ± 0.049.
In the case of “MASGILVNVKEEVTCPICLELLTQPLSLDCGHSFCQACLTANHKKSMLDKGESSCPVCRISYQPENIRPNRHVANIVEKLREVKLSPEGQKVDHCARHGEKLLLFCQEDGKVICWLCERSQEHRGHHTFLTEEVAREYQVKLQAALEMLRQKQQEAEELEADIREEKASWKTQIQYDKTNVLADFEQLRDILDWEESNELQNLEKEEEDILKSLTNSETEMVQQTQSLRELISDLEHRLQGSVMELLQGVDGVIKRTENVTLKKPETFPKNQRRVFRAPDLKGMLEVFRELTDVRRYWVDVTVAPNNISCAVISEDKRQVSSPKPQIIYGARGTRFPSFTNFNYCTGILGSQSITSGKHYWEVDVSKKTAWILGVCAGFQPDAMCNIEKNENYQPKYGYWVIGLEEGVKCSAFQDSSFHTPSVPFIVPLSVIICPDRVGVFLDYEACTVSFFNITNHGFLIYKFSHCSFSQPVFPYLNPRKCGVPMTLCSPSS [human TRIM5α, 330-340 = GARGTRFPSFT]”, the enrichment is reported as 1.29 ± 1.8.
Work on “MASGILVNVKEEVTCPICLELLTQPLSLDCGHSFCQACLTANHKKSMLDKGESSCPVCRISYQPENIRPNRHVANIVEKLREVKLSPEGQKVDHCARHGEKLLLFCQEDGKVICWLCERSQEHRGHHTFLTEEVAREYQVKLQAALEMLRQKQQEAEELEADIREEKASWKTQIQYDKTNVLADFEQLRDILDWEESNELQNLEKEEEDILKSLTNSETEMVQQTQSLRELISDLEHRLQGSVMELLQGVDGVIKRTENVTLKKPETFPKNQRRVFRAPDLKGMLEVFRELTDVRRYWVDVTVAPNNISCAVISEDKRQVSSPKPQIIYGARGTRFTFPSFVNFNYCTGILGSQSITSGKHYWEVDVSKKTAWILGVCAGFQPDAMCNIEKNENYQPKYGYWVIGLEEGVKCSAFQDSSFHTPSVPFIVPLSVIICPDRVGVFLDYEACTVSFFNITNHGFLIYKFSHCSFSQPVFPYLNPRKCGVPMTLCSPSS [human TRIM5α, 330-340 = GARGTRFTFPSFV]” yielded an enrichment of 0.221 ± 0.15.
With “MASGILVNVKEEVTCPICLELLTQPLSLDCGHSFCQACLTANHKKSMLDKGESSCPVCRISYQPENIRPNRHVANIVEKLREVKLSPEGQKVDHCARHGEKLLLFCQEDGKVICWLCERSQEHRGHHTFLTEEVAREYQVKLQAALEMLRQKQQEAEELEADIREEKASWKTQIQYDKTNVLADFEQLRDILDWEESNELQNLEKEEEDILKSLTNSETEMVQQTQSLRELISDLEHRLQGSVMELLQGVDGVIKRTENVTLKKPETFPKNQRRVFRAPDLKGMLEVFRELTDVRRYWVDVTVAPNNISCAVISEDKRQVSSPKPQIIYGAPGTLFTFPTFTNFNYCTGILGSQSITSGKHYWEVDVSKKTAWILGVCAGFQPDAMCNIEKNENYQPKYGYWVIGLEEGVKCSAFQDSSFHTPSVPFIVPLSVIICPDRVGVFLDYEACTVSFFNITNHGFLIYKFSHCSFSQPVFPYLNPRKCGVPMTLCSPSS [human TRIM5α, 330-340 = GAPGTLFTFPTFT]” the enrichment was 18.5 ± 5.4.

Same assay, conditions: library: insertions and deletions
“MASGILVNVKEEVTCPICLELLTQPLSLDCGHSFCQACLTANHKKSMLDKGESSCPVCRISYQPENIRPNRHVANIVEKLREVKLSPEGQKVDHCARHGEKLLLFCQEDGKVICWLCERSQEHRGHHTFLTEEVAREYQVKLQAALEMLRQKQQEAEELEADIREEKASWKTQIQYDKTNVLADFEQLRDILDWEESNELQNLEKEEEDILKSLTNSETEMVQQTQSLRELISDLEHRLQGSVMELLQGVDGVIKRTENVTLKKPETFPKNQRRVFRAPDLKGMLEVFRELTDVRRYWVDVTVAPNNISCAVISEDKRQVSSPKPQIIYGARGYQTFVNFNYCTGILGSQSITSGKHYWEVDVSKKTAWILGVCAGFQPDAMCNIEKNENYQPKYGYWVIGLEEGVKCSAFQDSSFHTPSVPFIVPLSVIICPDRVGVFLDYEACTVSFFNITNHGFLIYKFSHCSFSQPVFPYLNPRKCGVPMTLCSPSS [human TRIM5α, 2-codon deletion at 334]” gave an enrichment of 0.765 ± 0.55.
With “MASGILVNVKEEVTCPICLELLTQPLSLDCGHSFCQACLTANHKKSMLDKGESSCPVCRISYQPENIRPNRHVANIVEKLREVKLSPEGQKVDHCARHGEKLLLFCQEDGKVICWLCERSQEHRGHHTFLTEEVAREYQVKLQAALEMLRQKQQEAEELEADIREEKASWKTQIQYDKTNVLADFEQLRDILDWEESNELQNLEKEEEDILKSLTNSETEMVQQTQSLRELISDLEHRLQGSVMELLQGVDGVIKRTENVTLKKPETFPKNQRRVFRAPDLKGMLEVFRELTDVRRYWVDVTVAPNNISCAVISEDKRQVSSPKPQITRYQTFVNFNYCTGILGSQSITSGKHYWEVDVSKKTAWILGVCAGFQPDAMCNIEKNENYQPKYGYWVIGLEEGVKCSAFQDSSFHTPSVPFIVPLSVIICPDRVGVFLDYEACTVSFFNITNHGFLIYKFSHCSFSQPVFPYLNPRKCGVPMTLCSPSS [human TRIM5α, 6-codon deletion at 328]” the enrichment was 0.747 ± 0.73.
“MASGILVNVKEEVTCPICLELLTQPLSLDCGHSFCQACLTANHKKSMLDKGESSCPVCRISYQPENIRPNRHVANIVEKLREVKLSPEGQKVDHCARHGEKLLLFCQEDGKVICWLCERSQEHRGHHTFLTEEVAREYQVKLQAALEMLRQKQQEAEELEADIREEKASWKTQIQYDKTNVLADFEQLRDILDWEESNELQNLEKEEEDILKSLTNSETEMVQQTQSLRELISDLEHRLQGSVMELLQGVDGVIKRTENVTLKKPETFPKNQRRVFRAPDLKGMLEVFRELTDVRRYWVDVTVAPNNISCAVISEDKRQVSSPKPQIIYGARGTRYQTFVNFTGILGSQSITSGKHYWEVDVSKKTAWILGVCAGFQPDAMCNIEKNENYQPKYGYWVIGLEEGVKCSAFQDSSFHTPSVPFIVPLSVIICPDRVGVFLDYEACTVSFFNITNHGFLIYKFSHCSFSQPVFPYLNPRKCGVPMTLCSPSS [human TRIM5α, 3-codon deletion at 343]” showed an enrichment of 0.7254 ± 0.00073.
